Experimental data as given in the antibiotic and cytotoxicity screens of Wong et al. (2023).
Some of the results follow.

system: HepG2; experiment: cytotoxicity call (relative viability < 0.9); settings: 10 µM

Structure (SMILES)	cytotoxicity call
C[C@H](CO)N1C[C@H](C)[C@H](CN(C)Cc2ccc(C(F)(F)F)cc2)OCCCC[C@H](C)Oc2ccc(NS(=O)(=O)c3ccccc3)cc2C1=O	active
C[C@@H]1CN([C@H](C)CO)C(=O)CCCn2nncc2CO[C@@H]1CN(C)S(=O)(=O)c1cccc(C#N)c1	inactive
COc1ccccc1N1CCN(CC(O)COc2cccc3ccccc23)CC1 (stereo unspecified)	active
C[C@@H]1CN([C@@H](C)CO)C(=O)c2cc(NC(=O)CCN3CCOCC3)ccc2O[C@H]1CN(C)C(=O)Nc1ccc2c(c1)OCO2	inactive
Cc1ccc(S(=O)(=O)Nc2ccc3c(c2)C(=O)N([C@@H](C)CO)C[C@@H](C)[C@@H](CN(C)Cc2ccc(Cl)c(Cl)c2)O3)cc1	active
CC(=O)C1C(=O)C=C(C)OC1=O (stereo unspecified)	inactive
COc1ccc(NC(=O)N(C)C[C@H]2OCCCC[C@@H](C)Oc3ccc(NC(=O)NC(C)C)cc3C(=O)N([C@@H](C)CO)C[C@H]2C)cc1	inactive
O=C(CCCCCCC(=O)N/N=C/[C@H](O)[C@@H](O)[C@H](O)CO)NO	inactive
Cn1c(=O)c2c(nc(SCC(=O)NC(C)(C)C)n2C)n(C)c1=O	inactive
CO[C@H]1CN(C)C(=O)c2cc(NS(=O)(=O)c3cn(C)cn3)ccc2OC[C@H](C)N(Cc2cccc(F)c2)C[C@H]1C	inactive
CN(C)c1cc(CNCC(C)(C)C)c(O)c2c1C[C@H]1C[C@H]3[C@H](N(C)C)C(=O)[C@H](C(N)=O)C(=O)[C@@]3(O)C(=O)[C@@H]1C2=O	inactive

system: S. aureus RN4220; experiment: growth inhibition call (relative growth <= 0.2); settings: 50 µM

Structure (SMILES)	growth inhibition call
C/C=C/c1ccc([C@H]2[C@@H](CO)N(S(=O)(=O)Cc3ccccc3)C23CN(C(=O)C2CCOCC2)C3)cc1	inactive
C[C@@H]1CN([C@@H](C)CO)C(=O)c2cc(NC(=O)Nc3cccc4ccccc34)ccc2O[C@@H]1CN(C)C(=O)Nc1ccc(F)cc1	inactive
C[C@H]1CN([C@@H](C)CO)C(=O)c2cc(C#Cc3ccccc3F)cnc2O[C@H]1CN(C)C(=O)Cc1cccnc1	inactive
C[C@H]1CCCCO[C@@H](CN(C)C(=O)Nc2ccccc2)[C@@H](C)CN([C@@H](C)CO)C(=O)c2cc(NC(=O)NC3CCCCC3)ccc2O1	inactive
COc1ccc(S(=O)(=O)Nc2ccc3c(c2)C(=O)N([C@@H](C)CO)C[C@@H](C)[C@@H](CN(C)C(=O)Nc2cccc4ccccc24)OCCCC[C@@H](C)O3)cc1	inactive
C[C@@H]1CN([C@H](C)CO)C(=O)c2cc(NC(=O)CCCN(C)C)ccc2O[C@@H]1CN(C)S(=O)(=O)c1ccc(F)cc1	inactive
CCCC#Cc1ccc2c(c1)O[C@H](CN(C)Cc1ccc3c(c1)OCO3)[C@@H](C)CN([C@@H](C)CO)S2(=O)=O	inactive
Cc1ccc(S(=O)(=O)N(C)C[C@H]2Oc3ccc(NS(=O)(=O)c4cn(C)cn4)cc3CC(=O)N([C@@H](C)CO)C[C@@H]2C)cc1	inactive
COCC(=O)N1C[C@H](C)[C@@H](OC)CN(C)C(=O)c2cc(NC(=O)Nc3cccc(F)c3)ccc2OC[C@@H]1C	inactive
C[C@@H]1CN([C@H](C)CO)C(=O)c2cc(NC(=O)NC3CCCCC3)ccc2O[C@@H](C)CCCCO[C@H]1CN(C)C(=O)Nc1ccc2c(c1)OCO2	inactive
Cc1ccc(S(=O)(=O)N(C)C[C@H]2Oc3ccc(NS(C)(=O)=O)cc3C(=O)N([C@@H](C)CO)C[C@@H]2C)cc1	inactive
C[C@H]1CN([C@@H](C)CO)C(=O)CCCn2nncc2CO[C@H]1CN(C)C(=O)C1CC1	inactive
Cc1ccc(S(=O)(=O)Nc2ccc3c(c2)C(=O)N([C@@H](C)CO)C[C@@H](C)[C@H](CN(C)S(C)(=O)=O)OCCCC[C@@H](C)O3)cc1	inactive
COc1cccc(C#Cc2ccc3c(c2)O[C@@H](CN(C)C(=O)CN2CCOCC2)[C@H](C)CN([C@@H](C)CO)S3(=O)=O)c1	inactive
C[C@H](CO)N1C[C@H](C)[C@@H](CN(C)Cc2ccc(-c3ccccc3)cc2)Oc2ccc(NC(=O)NC3CCCCC3)cc2CC1=O	inactive
CC(=O)c1c(O)c(C)c(O)c2c1OC1=CC(=O)C(C(C)=O)C(=O)C12C (stereo unspecified)	active
Cc1noc(C)c1NC(=O)N(C)C[C@@H]1Oc2c(NS(=O)(=O)c3cn(C)cn3)cccc2C(=O)N([C@@H](C)CO)C[C@H]1C	inactive
C[C@H](CO)N1C[C@H](C)[C@H](CN(C)Cc2ccccc2F)Oc2cc(C#CC3CC3)ccc2S1(=O)=O	inactive
COc1cccc(NC(=O)N[C@H]2C=C[C@@H](CC(=O)N3CCOCC3)O[C@@H]2CO)c1	inactive
COc1ccccc1C#Cc1cnc2c(c1)C(=O)N([C@@H](C)CO)C[C@@H](C)[C@@H](CN(C)C(=O)c1ccc3c(c1)OCO3)O2	inactive

Structure (SMILES)	growth inhibition call
COc1ccc(S(=O)(=O)N2C[C@H](O)COC[C@H]3O[C@H](CC(=O)N[C@@H]4CCN(Cc5ccccc5)C4)CC[C@@H]32)cc1	inactive
CCCC(=O)N1CC[C@]2(CC1)CN([C@H](CO)c1c2c2ccc(cc2n1C)OC)C(=O)CN1CCOCC1	inactive
C[C@H](CO)N1C[C@H](C)[C@@H](CN(C)C(=O)CN(C)C)Oc2cc(C#CCC3CCCC3)ccc2S1(=O)=O	inactive
CO[C@H]1CN(C)C(=O)c2cc(NS(=O)(=O)c3ccccc3)ccc2OC[C@H](C)N(C(=O)NC(C)C)C[C@H]1C	inactive
COCC(=O)N1C[C@@H](C)[C@H](OC)CN(C)C(=O)c2ccc(NC(=O)Nc3ccccc3)cc2OC[C@@H]1C	inactive
C[C@@H]1CN([C@H](C)CO)C(=O)Cc2cc(NC(=O)Cn3cnnn3)ccc2O[C@H]1CN(C)C(=O)NC1CCCCC1	inactive
C[C@@H]1CN([C@H](C)CO)S(=O)(=O)c2ccc(Br)cc2O[C@H]1CN(C)S(=O)(=O)c1ccccc1	inactive
Cc1noc(C)c1S(=O)(=O)Nc1ccc2c(c1)CC(=O)N([C@H](C)CO)C[C@@H](C)[C@@H](CN(C)Cc1ccncc1)O2	inactive
COCC(=O)N1C[C@@H](C(=O)N2CCCO2)C[C@@H]2OCC[C@@H]21	inactive
C[C@H](CO)N1C[C@H](C)[C@H](CN(C)Cc2ccc(C(F)(F)F)cc2)OCCCC[C@H](C)Oc2ccc(NS(=O)(=O)c3ccccc3)cc2C1=O	inactive
C[C@@H]1CN([C@H](C)CO)C(=O)CCCn2nncc2CO[C@@H]1CN(C)S(=O)(=O)c1cccc(C#N)c1	inactive
COc1ccccc1N1CCN(CC(O)COc2cccc3ccccc23)CC1 (stereo unspecified)	inactive
C[C@@H]1CN([C@@H](C)CO)C(=O)c2cc(NC(=O)CCN3CCOCC3)ccc2O[C@H]1CN(C)C(=O)Nc1ccc2c(c1)OCO2	inactive
Cc1ccc(S(=O)(=O)Nc2ccc3c(c2)C(=O)N([C@@H](C)CO)C[C@@H](C)[C@@H](CN(C)Cc2ccc(Cl)c(Cl)c2)O3)cc1	inactive
CC(=O)C1C(=O)C=C(C)OC1=O (stereo unspecified)	inactive
COc1ccc(NC(=O)N(C)C[C@H]2OCCCC[C@@H](C)Oc3ccc(NC(=O)NC(C)C)cc3C(=O)N([C@@H](C)CO)C[C@H]2C)cc1	inactive
O=C(CCCCCCC(=O)N/N=C/[C@H](O)[C@@H](O)[C@H](O)CO)NO	inactive
Cn1c(=O)c2c(nc(SCC(=O)NC(C)(C)C)n2C)n(C)c1=O	inactive
CO[C@H]1CN(C)C(=O)c2cc(NS(=O)(=O)c3cn(C)cn3)ccc2OC[C@H](C)N(Cc2cccc(F)c2)C[C@H]1C	inactive
CN(C)c1cc(CNCC(C)(C)C)c(O)c2c1C[C@H]1C[C@H]3[C@H](N(C)C)C(=O)[C@H](C(N)=O)C(=O)[C@@]3(O)C(=O)[C@@H]1C2=O	active
